# From PMC4336329 (PLoS ONE, 2015)
# In all, about 310,000 compounds went through this assay and about 2,200 (0.71%) showed an effect of 50% or more. Effects have a minus sign here. This is one part of the list.
# Molecular target: human ether-à-go-go-related gene (hERG) potassium channel (human, UniProt Q12809)
# Test: primary screen, population patch clamp on CHO cells stably expressing hERG
# Sequence of human ether-à-go-go-related gene (hERG) potassium channel (Q12809 whole entry, looked up): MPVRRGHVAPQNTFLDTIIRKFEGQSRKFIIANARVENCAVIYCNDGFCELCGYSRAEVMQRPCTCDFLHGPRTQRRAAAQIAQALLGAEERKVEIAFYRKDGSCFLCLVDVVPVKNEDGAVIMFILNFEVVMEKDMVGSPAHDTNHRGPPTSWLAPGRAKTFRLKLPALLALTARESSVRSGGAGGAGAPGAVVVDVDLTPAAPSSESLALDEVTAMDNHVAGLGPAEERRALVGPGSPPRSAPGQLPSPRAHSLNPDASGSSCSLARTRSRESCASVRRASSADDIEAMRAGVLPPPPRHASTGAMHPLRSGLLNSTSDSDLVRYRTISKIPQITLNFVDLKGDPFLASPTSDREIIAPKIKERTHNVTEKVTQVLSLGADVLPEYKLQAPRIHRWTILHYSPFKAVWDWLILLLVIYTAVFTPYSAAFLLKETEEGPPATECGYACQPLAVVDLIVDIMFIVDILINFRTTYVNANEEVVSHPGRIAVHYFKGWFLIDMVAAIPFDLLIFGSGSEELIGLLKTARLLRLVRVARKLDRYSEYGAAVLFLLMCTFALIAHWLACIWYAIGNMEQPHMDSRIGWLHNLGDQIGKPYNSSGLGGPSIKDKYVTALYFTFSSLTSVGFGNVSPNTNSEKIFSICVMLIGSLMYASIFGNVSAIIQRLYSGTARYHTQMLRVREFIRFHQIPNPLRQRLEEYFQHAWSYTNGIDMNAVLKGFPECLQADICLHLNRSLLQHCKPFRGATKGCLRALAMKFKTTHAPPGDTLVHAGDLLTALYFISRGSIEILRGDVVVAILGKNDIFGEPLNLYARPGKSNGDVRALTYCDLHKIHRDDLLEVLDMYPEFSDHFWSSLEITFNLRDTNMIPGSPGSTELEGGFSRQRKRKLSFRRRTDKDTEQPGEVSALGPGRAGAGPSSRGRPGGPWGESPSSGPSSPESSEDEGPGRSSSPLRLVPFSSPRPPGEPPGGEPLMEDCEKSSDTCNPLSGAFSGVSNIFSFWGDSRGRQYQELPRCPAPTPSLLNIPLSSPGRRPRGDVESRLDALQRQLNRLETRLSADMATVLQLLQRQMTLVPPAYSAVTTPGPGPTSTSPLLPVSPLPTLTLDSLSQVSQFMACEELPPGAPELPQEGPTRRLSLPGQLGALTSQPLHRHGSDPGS
row,SMILES,"hERG current change (%, negative = inhibition) at 1uM [%]"
1,COc1cc(CNCc2cccnc2)ccc1OCC(=O)NC1CCCCC1.Cl,15.5
2,COc1ccc(/C=N/n2c(N)nc3ccccc32)cc1OC,6.11
3,Cc1ccc(NC(=O)Cn2nc(-c3ccccc3)nc2-c2ccccc2)c(C)c1,15.7
4,Cc1coc2c1c(C)cc1oc(=O)c(CC(=O)NCCCCCC(=O)O)c(C)c12,18.8
5,C=CCOc1ccc(/C=C2\SC(=S)N(NS(=O)(=O)c3ccccc3)C2=O)cc1,14.6
6,C=CCn1c(SCC(=O)Nc2sccc2C(N)=O)nc2sc(C)c(C)c2c1=O,18.3
7,Cc1cccc(-c2cc(C(=O)Nc3ccc4c(c3)OCCO4)c3ccccc3n2)c1,-5.55
8,CCC(=O)Nc1cccc(C(=O)OCC(=O)c2ccccc2Cl)c1,-2.05
9,O=C1CC(c2ccccc2)CC(=O)C1Sc1ccc(Cl)cc1 (stereo not drawn),-6.9
10,CCOc1ccc(C(=O)NC2CCN(C(=S)Nc3ccccc3C)CC2)cc1,17.1
11,CCC(=O)N1CCc2cc(S(=O)(=O)NC(C(=O)NCc3ccc(F)cc3)C(C)C)ccc21 (stereo not drawn),12.9
12,O=C1N=C(c2ccccc2)S/C1=C\c1cccs1,11.2
13,O=C(NN=C1CCCCCC1)c1ccncc1,15.9
14,CCOC(=O)C1CCCN(C(=O)CN2C(=O)c3ccccc3C2=O)C1 (stereo not drawn),4.34
15,c1ccc(-c2nc(C3CCCCC3)c3sccc3n2)cc1,14.4
16,CCn1c(SCc2c(Cl)cccc2Cl)nnc1-c1nn(-c2ccccc2)ccc1=O,-18.1
17,Cc1ccc(C#N)c(SCc2cc3c(cc2Cl)OCO3)n1,17.4
18,CCC1CCCCN1S(=O)(=O)c1ccc2[nH]c(=O)ccc2c1 (stereo not drawn),-20.1
19,O=C(O)c1ccccc1-c1ccccc1C(=O)NCCc1ccccc1,7.84
20,C=CCSc1nnc2c(n1)OC(c1c(C)[nH]n(-c3ccccc3)c1=O)Nc1ccccc1-2 (stereo not drawn),-3.51
21,Cc1nnc2c3ccccc3c(-c3ccc(O)cc3)nn12,9.5

row,SMILES,"hERG current change (%, negative = inhibition) at 1uM [%]"
1,CCCCC(=O)Nc1ccc2c(c1)OCCO2,18.4
2,COc1ccc(C(=O)Nc2ccc(Cl)cc2C(=O)N2CCOCC2)cc1,6.51
3,O=C(c1ccccc1)N1CCCCC(S(=O)(=O)c2ccccc2)C1=O (stereo not drawn),-0.735
4,NC(=O)CSc1nc2cc3c(cc2c(=O)n1CCCC(=O)NCc1ccc2c(c1)OCO2)OCO3,-22.4
5,CC1CCCN(CC(=O)Nc2ccc(S(=O)(=O)N3CCCC3)cc2)C1 (stereo not drawn),14
6,Cn1nnnc1SCC(=O)Nc1ccc2c(c1)OCCO2,3.18
7,CCOC(=O)N1CCC(NC(=O)c2cc(C(=O)NC3CCN(Cc4ccccc4)CC3)ccc2CO)CC1,13
8,Nc1nnc(SCc2ccccc2)n1-c1ccccc1,-12.8
9,O=C(O)CCn1c(-c2ccccn2)nc2ccccc21,11.4
10,O=C(Nc1ccc(Cl)cc1)C1C2C=CC3(O2)C1C(=O)N(CCN1CCCCC1)C3C(=O)NC1CCCCC1 (stereo not drawn),4.31
11,Cc1ccc(N(C(=O)CCC(=O)Nc2cc(C)on2)C(C(=O)NC2CCCC2)c2ccncc2)cc1 (stereo not drawn),11.4
12,O=C1COc2cc(ccc2[N+](=O)[O-])Oc2ccc(cc2Cl)C(=O)CCCCO1,7.73
13,CCN1CCC2(CCNC2)C1.Cl (stereo not drawn),-8.23
14,CCn1c(SCC(=O)Nc2ccc(OC)cc2)nc2nc3c(cc2c1=O)CCCC3,4.43
15,COc1cc2c(cc1OC)C(c1ccccc1)CC2=O (stereo not drawn),11.8
16,CCOC(=O)Cc1csc(NC(NC(=O)CC)(C(F)(F)F)C(F)(F)F)n1,9.22
17,COc1ccc(-n2cc(CN(C)Cc3n[nH]c(=O)[nH]3)c(-c3cccc(F)c3)n2)cc1,-2.65
18,CCCCN(CC)CCNS(=O)(=O)c1ccc2c(c1)oc(=O)n2C,7.36
19,O=C(COC(=O)CSc1ccc([N+](=O)[O-])cc1)NCc1ccco1,16.4
20,CN(C)c1ccc(CN(C(=O)COc2ccc(Br)cc2)C2CCS(=O)(=O)C2)cc1 (stereo not drawn),12.2
21,Cc1ccc(CNC(=O)CCc2nc(-c3cccs3)no2)cc1,5.65
